# Reference: PubChem BioAssay AID1645886 (National Center for Advancing Translational Sciences (NCATS), 2021)
# About 260 (1.6%) of roughly 16,000 compounds were called active. Inconclusive results, whose numbers are uncertain, are shown with a selection of clear calls. The call rests on the fitted dose curve; in most records, active means well fitted inhibition curve with a large enough effect; inconclusive means small, poorly fitted or top-dose-only effect; inactive means no such curve, though single readings can be large or run the other way. Potencies of inconclusive entries are left out as doubtful fits.
# Biological target: Rap guanine nucleotide exchange factor 4 (Homo sapiens) (UniProt Q8WZA2)
# Sequence of UniProt Q8WZA2 (Q8WZA2 whole entry, looked up): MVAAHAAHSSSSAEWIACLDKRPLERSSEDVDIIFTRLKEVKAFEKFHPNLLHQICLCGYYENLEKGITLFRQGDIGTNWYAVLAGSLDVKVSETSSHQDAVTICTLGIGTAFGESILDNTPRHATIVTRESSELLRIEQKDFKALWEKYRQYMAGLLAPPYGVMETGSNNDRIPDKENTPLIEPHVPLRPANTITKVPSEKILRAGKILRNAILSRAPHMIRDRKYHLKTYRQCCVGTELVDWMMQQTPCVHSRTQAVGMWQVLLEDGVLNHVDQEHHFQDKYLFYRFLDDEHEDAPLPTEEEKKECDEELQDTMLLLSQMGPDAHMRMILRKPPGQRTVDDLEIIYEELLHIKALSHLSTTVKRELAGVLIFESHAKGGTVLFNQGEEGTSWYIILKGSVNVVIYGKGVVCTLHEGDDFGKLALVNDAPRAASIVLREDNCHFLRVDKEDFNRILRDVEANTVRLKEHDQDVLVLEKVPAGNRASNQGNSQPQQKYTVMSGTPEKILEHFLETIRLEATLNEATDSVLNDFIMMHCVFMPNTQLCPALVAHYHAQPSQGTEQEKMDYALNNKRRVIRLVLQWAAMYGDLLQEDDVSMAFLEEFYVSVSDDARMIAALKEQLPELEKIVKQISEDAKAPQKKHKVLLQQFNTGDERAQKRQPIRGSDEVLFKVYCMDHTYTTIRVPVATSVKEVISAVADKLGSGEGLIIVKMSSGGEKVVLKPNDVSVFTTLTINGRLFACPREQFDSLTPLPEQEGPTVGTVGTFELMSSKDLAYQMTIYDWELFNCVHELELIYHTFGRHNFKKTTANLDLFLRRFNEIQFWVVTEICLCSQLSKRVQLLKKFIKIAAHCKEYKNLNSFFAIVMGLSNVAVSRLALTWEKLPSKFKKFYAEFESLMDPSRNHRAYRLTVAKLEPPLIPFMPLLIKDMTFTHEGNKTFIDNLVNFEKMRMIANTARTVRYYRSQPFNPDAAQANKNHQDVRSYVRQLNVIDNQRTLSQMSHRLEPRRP
# Experiment: Validation qHTS for antagonist of cAMP-regulated guanine nucleotide exchange factor 4 (EPAC2); further: nearly all actives have a fitted effect of over 40% in size;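 on activity, negative = inhibition: 100% = activation by cAMP agonist control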
# Conditions: EPAC2 Rap1B BODIPY-GDP exchange, fluorescence; activity, negative = inhibition: at 112 µM (top of the series)
# Method in brief: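 Fluorescent exchange read-out: 100 nM EPAC2 with 250 nM RAP1B–BODIPY-GDP and 50 uM GDP; BODIPY-GDP release lowers fluorescence. Read at 480/540 nm every 5 min for 30 min at room temperature; normalized to 6.5 mM cAMP.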
# Potency means the concentration at half of the fitted maximal effect; tags describe the fitted curve by direction and shape.
Compound,Potency,"activity, negative = inhibition"
Clc1cc(Cl)c(OCC#CI)cc1Cl,"inconclusive [inhibitor, full curve, poor fit]",
O=C(C[C@H]1C(=O)N(Cc2ccccc2)C[C@@H]1Cc1ccccc1)Nc1ccccc1,"inconclusive [inhibitor, partial curve, poor fit]",
Cc1nc(N=Nc2cc(S(=O)(=O)O)c3cc([N+](=O)[O-])cc(S(=O)(=O)O)c3c2)c(COP(=O)(O)O)c(C=O)c1O,"inconclusive [inhibitor, single point]",
Cc1ccccc1,"inconclusive [inhibitor, single point]",
Cc1nc(NCc2cccc3c2OCO3)sc1-c1ccn(CC2CCCN(C)C2)n1 (stereo unspecified),"inconclusive [inhibitor, single point]",
CC(=O)O[C@]1(C(C)=O)CC[C@H]2[C@@H]3C=C(C)C4=CC(=O)CC[C@]4(C)[C@H]3CC[C@@]21C,,inactive: -0.525% [at 56.6 µM]
CN(C)c1ncc2nc(-c3ccc(F)cc3)c(=O)n(Cc3cccs3)c2n1,,inactive: 1.11%
Cn1c(=O)c(-c2ccccc2)nc2cnc(Oc3ccccc3)nc21,"inconclusive [inhibitor, full curve, poor fit]",
CCn1cc(CN2Cc3ccccc3OC(c3ccccc3OC)C2)c(C)n1 (stereo unspecified),"inconclusive [inhibitor, partial curve, poor fit]",
Cc1noc(C)c1C(=O)N1CCC2(CCCN(C(c3ccccc3)c3ccccc3)C2)CC1,"inconclusive [inhibitor, single point]",
Cc1cccc2cc(CN(C(=O)c3ccc(C(F)(F)F)cc3)C3CC3)c(N3CCC(O)CC3)nc12,"inconclusive [inhibitor, partial curve, poor fit]",
COc1cc(CNc2nc(C)c(-c3ccn(C4Cc5ccccc5C4)n3)s2)cc2c1OCO2,,inactive: -12%
CCn1c(-c2ccccc2F)nc2cc(C(=O)N3CCNC(=O)C3CC(=O)OC)cc(NC(C)=O)c21 (stereo unspecified),"inconclusive [inhibitor, full curve, poor fit]",
O=C1c2ccccc2CCC1CNCCc1ccc(O)cc1 (stereo unspecified),"inconclusive [inhibitor, partial curve, poor fit]",
CCCn1c(=O)c2[nH]c(-c3ccc(OCC(=O)NCCN)cc3)nc2n(CCC)c1=O,"inconclusive [inhibitor, partial curve, poor fit]",
OC1(c2cccnc2)CCN(Cc2ccc3c(c2)CN(Cc2cc(F)cc(F)c2)CCO3)CC1,,inactive: -4.93%
COc1cc(=O)n2c(c1C(=O)N(C)Cc1nonc1C)CCN(Cc1ccc(C)cc1C)CC2,"inconclusive [inhibitor, single point]",
COCC(=O)N1CCC2(CCCN(c3cccc(-c4ccccc4)c3)C2)CC1,"inconclusive [inhibitor, partial curve, poor fit]",
Cn1cccc1C(=O)N1CCC2(CCCN(c3cccc(-c4ccccc4)c3)C2)CC1,,inactive: -11.3%
CCCc1c(OCCCOc2ccc(OCC(=O)O)cc2)ccc(C(C)=O)c1O,"inconclusive [inhibitor, partial curve]",
CCCCCCCCCCCCN1C/C(=C\C(=O)OCC)c2cc(C(F)(F)F)ccc2S1(=O)=O,"inconclusive [inhibitor, single point]",

Compound,Potency,"activity, negative = inhibition"
O=C(c1cc(C(F)(F)F)cc(C(F)(F)F)c1)N1CCC[C@@]2(CCN(Cc3ccccc3)C2)C1,"inconclusive [inhibitor, single point]",
O=C1CCN(CCc2ccccc2)CCN1CCOc1ccccc1,"inconclusive [inhibitor, partial curve, poor fit]",
COc1ccc2c(c1)c(CC(=O)OCC(=O)O)c(C)n2C(=O)c1ccc(Cl)cc1,"inconclusive [inhibitor, partial curve]",
O=C1C[C@H]2C=CCc3cccc(c32)CN1Cc1ccc(F)cc1,"inconclusive [inhibitor, partial curve, poor fit]",
O=C(C[n+]1cc(Br)cc2ccccc21)c1ccc(Cl)cc1,"inconclusive [inhibitor, partial curve, poor fit]",
CC[N+](C)(C)c1ccc(/C=C/c2ccnc3ccccc23)cc1,active: 44.7 µM,
C=CC[C@H](c1ccc(F)cc1)N(CC(C)C)S(=O)(=O)C=C,"inconclusive [inhibitor, partial curve, poor fit]",
Cn1cccc1C(=O)N1CCC2(CCCN(Cc3nccs3)C2)CC1,,inactive: -19.6%
CCOC(=O)C[C@H]1c2ccccc2S(=O)(=O)N1c1cccc(OC)c1,"inconclusive [inhibitor, partial curve, poor fit]",
O=c1c(CCc2ccccc2)nc2cncnc2n1Cc1ccc(F)cc1,"inconclusive [inhibitor, partial curve, poor fit]",
CC(C)=CC1C(C(=O)O)C1(C)C (stereo unspecified),,inactive: -11.1%
CN(C)c1ccc2ccc3cccc4ccc1c2c34,,inactive: 101%
CCCCCCCCCC[n+]1ccc(/C=C/c2c(C)[nH]c3ccccc23)c2ccccc21,"inconclusive [inhibitor, single point]",
CCCCC1C(=O)N(c2ccccc2)N(c2ccccc2)C1=O,"inconclusive [inhibitor, partial curve]",
COc1ccccc1-c1cc(=O)c2cccc(OC)c2o1,"inconclusive [inhibitor, partial curve]",
COc1ccc(CCN(C)C(=O)c2cnn(-c3nccc(-c4ccc(C)o4)n3)c2C)cc1OC,"inconclusive [inhibitor, single point]",
C#C[C@]1(OC(C)=O)CC[C@H]2[C@@H]3CCC4=CC(=O)CC[C@@H]4[C@H]3CC[C@@]21C,"inconclusive [inhibitor, full curve]",
O=C(c1ccncc1)N1CCC2(CCCN(c3cccc(-c4ccccc4)c3)C2)CC1,"inconclusive [inhibitor, partial curve, poor fit]",
CC(NC(=O)c1cccnc1)c1nnc2n1CCN(Cc1ccc(F)cc1F)CC2 (stereo unspecified),,inactive: 4.57%
COc1ccccc1CN1CC[C@@]2(CCCN(C(=O)c3cc(C(F)(F)F)cc(C(F)(F)F)c3)C2)C1,"inconclusive [inhibitor, full curve, poor fit]",
CCC1C(=O)NCCN1Cc1ccc2c(c1)CN(Cc1cc(OC)c3c(c1)OCO3)CCO2 (stereo unspecified),"inconclusive [inhibitor, partial curve, poor fit]",

Compound,Potency,"activity, negative = inhibition"
CC(Cc1ccc(O)c(O)c1)C(C)Cc1ccc(O)c(O)c1 (stereo unspecified),"inconclusive [inhibitor, partial curve]",
Nc1cccc2[nH]cnc12,"inconclusive [inhibitor, partial curve, poor fit]",
O=S1(=O)CCO[C@H]2CCCC[C@@H]2N1Cc1ccccc1Br,"inconclusive [inhibitor, single point]",
CN(C)c1ncc2ncc(=O)n(Cc3ccc(F)cc3)c2n1,"inconclusive [inhibitor, single point]",
CCC1(C2CCN(Cc3ccc(OC)cc3)CC2)NC(=O)N(CC2COc3ccccc3O2)C1=O (stereo unspecified),,inactive: -1.63%
COc1cc(-c2c(-c3cc(OC)c(OC)c(OC)c3)noc2C)ccc1F,"inconclusive [inhibitor, partial curve, poor fit]",
CN(C)C(=O)c1ccc(-c2nc(N(C)Cc3ccco3)c3ccccc3n2)cc1,,inactive: -21%
CC(=O)OCC(=O)[C@@]12OC3(CCCC3)O[C@@H]1C[C@H]1[C@@H]3CCC4=CC(=O)C=C[C@]4(C)[C@@]3(F)[C@@H](O)C[C@@]12C,"inconclusive [inhibitor, single point]",
COC(=O)/C=C/c1cc(F)ccc1S(=O)(=O)Nc1ccccc1,"inconclusive [inhibitor, single point]",
COCCn1c(=O)c(-c2cc(F)cc(F)c2)nc2cnc(N3CCNCC3)nc21,,inactive: -20.9%
O=C(c1csnn1)N1CCC2(CC1)CN(c1cccc(-c3ccccc3)c1)C2,"inconclusive [inhibitor, full curve, poor fit]",
Cc1c(C(=O)N2CCC(Cc3ccccc3)CC2)sc2ncnc(NCc3ccccn3)c12,"inconclusive [inhibitor, full curve, poor fit]",
Cc1ccc(/C=N/n2c(-c3ccccc3)csc2=S)cc1,"inconclusive [inhibitor, full curve, poor fit]",
CC(C)(C)[C@H]1CCC(=O)N([C@H](CN=[N+]=[N-])Cc2ccccc2)CC1,active: 56.2 µM,
COc1cc(-c2ccc(C)cc2)cc2c1OCCN(C(=O)CCn1ccc(C)n1)C2,"inconclusive [inhibitor, full curve, poor fit]",
Cc1ccccc1-c1ccc2ncnc(NCc3cccnc3)c2c1,"inconclusive [inhibitor, partial curve, poor fit]",
Cc1c(CC(C)(C)C(=O)O)n(Cc2ccc(Cl)cc2)c2ccc(F)cc12,active: 44.7 µM,
COc1cccc(C2(CC(=O)N3CCN(c4ccccc4O)CC3)CC(=O)N(C3CCCC3)C2=O)c1 (stereo unspecified),"inconclusive [inhibitor, partial curve, poor fit]",
O=c1c(O)c(-c2ccccc2)oc2cc(O)cc(O)c12,"inconclusive [inhibitor, partial curve]",
